In all, about 94,000 compounds went through this assay and about 6,200 (6.6%) were called active. Inconclusive results, whose numbers are uncertain, are shown with a selection of clear calls. Calls follow the shape of the dose curve; as a rule, active = well fitted inhibition curve with a large enough effect; inconclusive = small, poorly fitted or top-dose-only effect; inactive = flat fitted curve, though single readings scatter. Where the call is inconclusive, the potency comes from a doubtful curve fit.
Assay: Cytotoxic Profiling in HEK 293 Cell Line of Diverse Libraries Using Quantitative High-Throughput Screening; also: nearly all actives have a fitted effect of over 60% in size
Conditions: HEK 293 viability, ATP luminescence (CellTiter-Glo), 48-72 h; series mostly up to 115 µM
Procedure, shortened: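 qHTS cytotoxicity; HEK 293, 250 cells/well; compound pinned; 48 or 72 hr, 37 degree Celsius, 5% CO2, 95% humidity; CellTiter-Glo, 10 min RT; luminescence (ATP).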
Potency is read from the fitted curve at half-maximal effect; tags tell the direction and shape of the fitted curve.

Structure (SMILES) | Potency
Cc1ccccc1CN1CCc2nc(C(=O)NCCOc3ccccc3)oc2CC1 | inconclusive: 100 µM [inhibitor, partial curve, poor fit]
Cc1ccc(C2Cn3cnc(C(=O)N4CCC(C(=O)NC5CCCC5)CC4)c3CO2)cc1 (centres undefined) | inactive
CCN1CCN(c2ncnc3c2CN(C2CCC2)C(=O)CN3C)CC1 | inactive
O=C1Nc2ccccc2C12CCN([S+](=O)([O-])c1cccc(C(F)(F)F)c1)C2 (centres undefined) | inconclusive: 79.4 µM [inhibitor, partial curve, poor fit]
Cc1oc2ccn(Cc3ccccc3F)c(=O)c2c1C(=O)NCCCN1CCCCC1C (centres undefined) | inconclusive: 50.1 µM [inhibitor, partial curve, poor fit]
COCCN1C(=O)c2ccccc2C(C(=O)NCCc2ccc(Cl)cc2)C12CCCC2 (centres undefined) | inconclusive: 39.8 µM [inhibitor, partial curve, poor fit]
COc1ccccc1-c1ccc2c(C(=O)N3CCN(c4ncccn4)CC3)nn(C)c2n1 | inconclusive: 89.1 µM [inhibitor, partial curve, poor fit]
Cc1cc(C(=O)N2CCC3(CC2)CC(N(C(=O)c2ccccc2)C2CC2)CCO3)n(C)n1 (centres undefined) | inconclusive: 50.1 µM [inhibitor, partial curve, poor fit]
CCCn1cc(-c2ccncc2)cc1C(=O)Nc1ccccc1C | inconclusive: 39.8 µM [inhibitor, partial curve, poor fit]
COCCNC(=O)c1ccc(OC2CCN(C/C=C/c3ccc(F)cc3)CC2)c(Cl)c1 | active: 44.7 µM
NCc1ccc(-c2cc(F)cc(F)c2)cc1 | inconclusive: 50.1 µM [inhibitor, partial curve, poor fit]
CCN1c2cc(C(=O)NCc3ccc(OC)cc3)ccc2C(=O)N2CCCCCC21 (centres undefined) | inconclusive: 89.1 µM [inhibitor, single point]
C#CCNC(=O)CNC(=O)c1cccc(-c2ccc(C(F)(F)F)cc2)c1 | inconclusive: 89.1 µM [inhibitor, single point]
CCS(=O)(=O)N1CCC2(CCC(=O)N(CC3CC3)CC2)CC1 | inactive
CCOC(=O)c1ccc(NC(=O)c2ccc3c(c2)N(CC)C2CCCN2C3=O)cc1 (centres undefined) | inconclusive: 44.7 µM [inhibitor, partial curve, poor fit]
Cc1cc(OCCN(C)C)c(C)c2c1CC[C@@H]([C@H](C)C(=O)NCc1cccs1)C2 | active: 56.2 µM
O=C(NC[C@H]1O[C@@H]2C[C@@H](CC(=O)N3CCOCC3)O[C@@H]2[C@@H]1O)NC1CCC1 | inactive
CSc1ccc2cc(CN3CCCC(O)C3)c(-c3ccc(Cl)cc3)nc2c1 (centres undefined) | inconclusive: 35.5 µM [inhibitor, partial curve, poor fit]
Cc1nn(-c2ccccc2)c2c1C(C)N(C1CCN(C(=O)Cc3ccc(F)cc3)CC1)C2=O (centres undefined) | active: 50.1 µM
O=C(c1cc2cn(C3CC3)cc2s1)N1CCc2ccccc2C1 | active: 89.1 µM
CCc1noc(-c2cccn3c(CNC(=O)CCc4ccccc4)nnc23)n1 | inactive
COCCNC(=O)c1cc(-c2ccc(F)cc2)nc2c1cnn2C | inconclusive: 100 µM [inhibitor, partial curve]

Structure (SMILES) | Potency
O=C(c1ccc(C(F)(F)F)cc1)N1CCC(C(=O)N2CCC(N3CCCC3=O)CC2)CC1 | inactive
CC(C)CCN1CCC2(CC1)CC(=O)N(c1ccccc1)c1ccccc1O2 | active: 44.7 µM
CCOc1ccccc1-c1nccn1C1COc2ccccc2C1 (centres undefined) | inconclusive: 31.6 µM [inhibitor, partial curve, poor fit]
CC1(c2ccccc2)N(Cc2ccccc2C#N)C(=O)OC12CCN(C(=O)Cc1cccc(F)c1)CC2 (centres undefined) | inconclusive: 31.6 µM [inhibitor, full curve]
O=C(Nc1ccc(F)cc1)c1c[nH]c2cccnc12 | inconclusive: 100 µM [inhibitor, partial curve]
CSc1ccc(C(=O)N2CC(=O)N(Cc3ccc(C)cc3)CC(O)C2)cc1 (centres undefined) | inactive
COc1ccc(C2Cn3nnc(-c4noc(COc5cccc(C)c5)n4)c3CO2)cc1 (centres undefined) | inconclusive: 22.4 µM [inhibitor, full curve, poor fit]
CSc1cccc(NC(=O)Cn2c(-c3cccc(Cl)c3)nc(C)c(CCO)c2=O)c1 | inconclusive: 50.1 µM [inhibitor, partial curve, poor fit]
CC1=NOC2(CCN(Cc3ccc(N(C)C)cc3)C2)C1 (centres undefined) | inconclusive: 126 µM [inhibitor, single point]
COC(=O)C1=C(C)N=C2SC=C(CC(=O)NCC3CC3)N2C1c1ccccc1OC (centres undefined) | inconclusive: 79.4 µM [inhibitor, single point]
Cc1nn(-c2ccccc2)c2c1C(C1CC1)N(C1CCN(Cc3cccc(OC(F)(F)F)c3)CC1)C2=O (centres undefined) | inactive
CCc1[nH]nc(-c2nc(C3CC3)nn2-c2ccc(S(N)(=O)=O)cc2)c1C | inconclusive: 70.8 µM [inhibitor, single point]
O=C(NC1CCCCC1)N1Cc2[nH]cnc2C[C@H]1c1nc(-c2ccc(Cl)cc2)no1 | inactive
COc1cccc(CNC(=O)[C@@H]2CCCN2c2nccc(Nc3ccccc3Cl)n2)c1 | inconclusive: 31.6 µM [inhibitor, partial curve, poor fit]
O=C(C1CCCCN1Cc1ccc(-c2cccs2)cc1)N1CCC(Cc2ccccc2)CC1 (centres undefined) | inconclusive: 22.4 µM [inhibitor, partial curve, poor fit]
Cc1ccc2oc(C(=O)N(C)CCc3ccccc3)c(C)c2c1 | inconclusive: 50.1 µM [inhibitor, partial curve, poor fit]
COc1cccc(N2C(=O)NC(=NC3CCCC3)C23CCCN([S+](=O)([O-])c2ccccc2)C3)c1 (centres undefined) | inactive
CCC1Oc2ccc(NC(=O)c3cccc(F)c3)cc2CN(Cc2ccccc2F)C1=O (centres undefined) | active: 35.5 µM
COCCn1ccc2c(C3=CCOCC3)nc(-c3cccc(O)c3)cc21 | inconclusive: 89.1 µM [inhibitor, partial curve]
O=C(c1ccc(Cl)cc1)N1CCC(C(=O)N2CCC(N3CCOC3=O)CC2)CC1 | inconclusive: 79.4 µM [inhibitor, partial curve, poor fit]
Cc1ccccc1CNC[C@H]1Cn2c(-c3ccccc3)cnc2CO1 | active: 112 µM
Cc1cn2nc(C(=O)Nc3ccc(N(C)C)cc3)cc2c(N2CCCC2)n1 | inconclusive: 50.1 µM [inhibitor, partial curve, poor fit]

Structure (SMILES) | Potency
O=C(C1CN(C2CCCCC2)C(=O)N1)N1CCC(Cc2ccccc2)CC1 (centres undefined) | inconclusive: 79.4 µM [inhibitor, partial curve, poor fit]
Cc1cnc(CC2CCN(S(=O)(=O)c3ccc4c(c3)CCC4)C2)n1Cc1ccccc1 (centres undefined) | inconclusive: 44.7 µM [inhibitor, partial curve, poor fit]
Cc1[nH]cnc1CN1CCCC(c2[nH]ncc2Cc2ccccc2)C1 (centres undefined) | inconclusive: 50.1 µM [inhibitor, partial curve, poor fit]
OCc1cccc(-c2ccc3ncc(Nc4ccccc4Cl)n3n2)c1 | active: 89.1 µM
O=C(NC[C@H]1O[C@H](Cc2cc(-c3ccccc3)on2)CC[C@@H]1O)c1ccccc1F | inconclusive: 100 µM [inhibitor, partial curve]
O=C(C1CCOCC1)N1CCC(c2noc(-c3cnccn3)n2)C1 (centres undefined) | inactive
CCOc1ccc(CN2CCC3(CC2)Cc2ccccc2CNC3=O)cc1 | inconclusive: 89.1 µM [inhibitor, partial curve, poor fit]
O=C(N[C@@H]1C[C@@H]2CO[C@H](c3ccccc3)C[C@@H]2C1)c1ccc2c(c1)OCCCO2 | inconclusive: 56.2 µM [inhibitor, partial curve, poor fit]
CC1=C[C@@H](CNC2CCN(C)CC2)[C@H](C(C)C)C[C@H]1Cc1nc2ccccc2[nH]1 | active: 28.2 µM
COc1ccc(S(=O)(=O)N2CCC3(CC2)CC(CC(=O)NC2CC2)CCO3)cc1 (centres undefined) | inactive
COc1ccc(NC(=O)c2ccc3c(c2)OCCN(Cc2ncccn2)C3)c(F)c1 | inconclusive: 126 µM [inhibitor, single point]
O=C(NCc1cccs1)C1CCCN1C(=O)c1cccc(-c2cccnc2)c1 (centres undefined) | inactive
CC(C)n1cnnc1-c1nn(C)c2c1CN(C(=O)Cc1c[nH]c3ccccc13)CC2 | inconclusive: 79.4 µM [inhibitor, partial curve]
CNC(=O)C1CCN(C(=O)c2ccc(-c3cccc(OC)c3)cc2)CC1 | inconclusive: 79.4 µM [inhibitor, partial curve, poor fit]
COc1cc(C)c(-c2nc(CN3CCOC(CCN)C3)c(C)o2)cc1C (centres undefined) | active: 44.7 µM
COCC1CN(C2CCC2)CC12CCN(C(=O)Cc1ccc(OC)cc1)CC2 (centres undefined) | inconclusive: 50.1 µM [inhibitor, partial curve, poor fit]
COCCNC(=O)[C@@H]1C[C@@H](O)CN1C1CCN(C(=O)C(C)C)CC1 | inactive
C#CCNC(=O)C1CCN(Cc2ccccc2-c2ccc(C)c(Cl)c2)CC1 | inconclusive: 50.1 µM [inhibitor, partial curve, poor fit]
Cc1noc(C)c1-c1cc2c(cc(C)n2C)c(N2CCN(Cc3ccccc3)CC2)n1 | inconclusive: 50.1 µM [inhibitor, partial curve, poor fit]
CN1Cc2cccn2CC1CNC(=O)C1(S(=O)(=O)c2ccc(Cl)cc2)CC1 (centres undefined) | inconclusive: 70.8 µM [inhibitor, single point]

From PubChem BioAssay AID1345083 (National Center for Advancing Translational Sciences (NCATS), 2018)
